Measured values from PubChem BioAssay AID652104 (National Center for Advancing Translational Sciences (NCATS), 2013).
Among all 410,000 compounds or so, about 7,200 (1.8%) were called active. This list was built around the results that the source calls inconclusive (neither active nor inactive); the mix of calls is not that of the screen. Calls follow the shape of the dose curve; as a rule, active = well fitted activation curve with a large enough effect; inconclusive = small, poorly fitted or top-dose-only effect, or another doubt; inactive = no such curve, though single readings can be large or run the other way. No potency is given beside an inconclusive call; the fits are too rough.

Experiment: qHTS of TDP-43 Inhibitors; also: nearly all actives have a fitted effect of over 50% in size; as to growth rescue (activation): % of control where 0% means no effect
Conditions: TDP-43 expressing yeast growth rescue, BacTiter-Glo, 24 h; growth rescue (activation): at 46.1 µM (top of the series) unless noted
Outline: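 Galactose-induced TDP-43 yeast, OD600=0.02, compound pinned; 24 hr, 30 deg C; BacTiter-Glo luminescence for growth. Inhibitors of TDP-43 toxicity read as activators.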
Potency is read from the fitted curve at half-maximal effect; tags tell the direction and shape of the fitted curve.

Compound | Potency | growth rescue (activation)
O=C(c1cccc(Cl)c1)N1CCC(=O)N([C@H](COCc2cccc(Cl)c2)Cc2ccccc2)CC1 | inconclusive [activator, single point] | 
C(=N\Nc1nc(Nc2ccccc2)nc(N2CCOCC2)n1)/c1c[nH]c2ccccc12 | inactive | 
O=C(NCCc1ccccn1)c1ccc(OC(F)F)cc1 |  | inactive: -27.4% [at 1.82 µM]
C=CCC[C@@H](CCCCC)OC(=O)/C=C/[C@H](O)[C@@H](O)C[C@H](O)CC=C | inactive | 
CN(Cc1ccccc1F)C(=O)c1ccc(Oc2ccccc2)cc1 | inconclusive [activator, single point] | 
Cc1cccc(C)c1NC(=O)C(c1ccc(C(F)(F)F)cc1)n1c(=O)c(-c2cc3ccccc3[nH]2)nc2ccccc21 (stereo not given) | inconclusive [activator, partial curve] | 
O=C(CCc1ccccc1)N(Cc1cccnc1)c1nc2ccc(F)cc2s1 | inconclusive [activator, full curve] | 
CCCCNc1c(-c2ccc(F)cc2)nc2nc(C)cc(C)n12 | inconclusive [activator, full curve, poor fit] | 
Cc1ccccc1-n1c(SCC(=O)Nc2cccc3ccccc23)nc(O)cc1=O | inactive | 
CCc1cc(=O)oc2c(C)c(O)c(CN3CCCCC3)cc12 | inactive | 
Cc1cccc(OCCCC(=O)O)c1C | inconclusive [activator, single point] | 
O=[N+]([O-])c1ccc(Sc2cccc[n+]2[O-])c2nonc12 |  | inconclusive: -86.8% [activator]
COc1ccc(C(=O)NCc2ccccc2)cc1Br | inconclusive [activator, single point] | 
CCCCCCc1nnc(NC(=O)c2ccco2)s1 | inconclusive [activator, partial curve, poor fit] | 
N/C(=N\OC(=O)c1ccccc1Cl)c1ccncc1 | active: 25.1 µM | 
Cc1ccccc1SCC(=O)N/N=C/c1ccc(F)cc1 | inconclusive [activator, single point] | 
O=[N+]([O-])c1nn(-c2ccc3c(c2)OCCO3)n(O)c1=NCc1ccc(F)cc1Cl | active: 22.4 µM | 
NC(=S)N/N=C\c1ccc(-c2cccc(Cl)c2Cl)o1 | inconclusive [activator, single point] | 
CC(=O)NC1CC2CCCC(C1)N2CC(=O)N1CCCc2ccccc21 (stereo not given) | inconclusive [activator, partial curve, poor fit] | 
N#Cc1ccccc1S(=O)(=O)N1CCN(C(=O)C2COc3ccccc3O2)CC1 (stereo not given) | inactive | 
O=C(O)c1ccc(N/N=C/c2cccc(C(F)(F)F)c2)cc1 | active: 12.6 µM | 
O=C(COc1ccccc1[N+](=O)[O-])Nc1ccc2c(c1)CCC2 | inconclusive [activator, full curve, poor fit] | 
CC(=O)O/N=C/c1c(N2CCOCC2)n(C)c2ccccc12 | inconclusive [activator, single point] | 

Compound | Potency | growth rescue (activation)
CC(C)OCC(O)CN1CCC(Cc2ccccc2)CC1 (stereo not given) | inconclusive [activator, partial curve] | 
Cc1ccc(S(=O)(=O)N2CCC(=O)c3ccccc32)cc1 | inconclusive [activator, partial curve, poor fit] | 
O=C1CC(c2ccccc2)Sc2ccccc2N1 (stereo not given) | active: 11.2 µM | 
O=C(Nc1ccccc1Cl)C1CCCN(c2ncnc3c2nc2n3CCCCC2)C1 (stereo not given) | active: 14.1 µM | 
Cc1ccc(S(=O)(=O)N2CCN(C(=O)c3ccccc3Cc3ccccc3)CC2)c(C)c1 | inconclusive [activator, single point] | 
CCOc1cc(-c2cc(-c3ccc(C)o3)nc(N)c2C#N)ccc1O | inconclusive [activator, single point] | 
O=S(Cc1ccc(Br)cc1)Cc1nnc(SCc2ccc(Cl)cc2)n1-c1ccccc1 (stereo not given) | active: 6.31 µM | 
COc1ccc(C(O)c2nc(-c3ccccc3OC)cs2)cc1 (stereo not given) | inconclusive [activator, partial curve, poor fit] | 
CN(Cc1ccc(F)cc1)C(=O)CCc1nnc(-c2ccccc2)o1 | inconclusive [activator, partial curve] | 
CCc1ccc(NC(=O)C2(c3ccccc3)CC2(Cl)Cl)cc1 (stereo not given) | inconclusive [activator, single point] | 
CCOC(=O)Cc1c(-c2cccc(Br)c2)nc2c3ccccc3ccn12 | active: 22.4 µM | 
CN1OC[C@@H]2CN(Cc3cc(Cl)cc(Cl)c3)[C@H](c3cccc(-c4ccc(C#N)cc4)c3)C[C@@H]21 | inconclusive [activator, partial curve] | 
COc1ccc(/C=C(\C#N)C(=O)NCc2ccccc2)cc1O | inactive | 
CNc1c(NC(=O)c2ccc3c(c2)OCO3)c(=O)oc2ccccc12 | inactive | 
Cc1nc(N2CCCCC2)c2c(C)c(C(=O)Nc3ccc4c(c3)OCCO4)sc2n1 | inconclusive [activator, single point] | 
Cc1cccc(OCC(=O)Nc2ccc3c(c2)OCCO3)c1 | active: 17.8 µM | 
Clc1cccc(Cl)c1-c1noc(-c2ccno2)n1 | inconclusive [activator, single point] | 
CCOC(=O)c1nc(NCc2ccccc2)sc1C | inconclusive [activator, single point] | 
Cc1c(C(=O)N(C)Cc2ccccc2)sc2nc(-c3ccc(F)cc3)cn12 | active: 22.4 µM | 
COc1ccc(C(=O)COC(=O)c2ccc([N+](=O)[O-])s2)cc1OC | inconclusive [activator, partial curve] | 
CN(Cc1cnccn1)C(=O)CC1C(=O)NCCN1Cc1cccc(F)c1 (stereo not given) | inconclusive [activator, single point] | 
COc1ccc(N2CCN(C(=O)c3ccc4c(c3)CCN4S(=O)(=O)c3ccccc3)CC2)cc1 | inconclusive [activator, partial curve] | inactive: 9.93% [at 9.22 µM]
CCOc1ccccc1NC(=O)C1CCCN(S(=O)(=O)c2cccs2)C1 (stereo not given) | inconclusive [activator, single point] | 

Compound | Potency | growth rescue (activation)
COc1ccc(COC(=O)Nc2cc3c(C(F)(F)F)nn(C)c3s2)cc1 | inconclusive [activator, partial curve] | 
CSCC[C@H](N)C(=O)NC[C@H]1O[C@@H](n2cnc3c(N)ncnc32)[C@H](O)[C@@H]1O | inconclusive [activator, single point] | 
Clc1ccc(/C=N/Nc2nc(Cl)nc3ccccc23)cc1 | inconclusive [activator, partial curve] | 
Cc1cc(C(F)(F)F)nc(SCC(=O)c2cccc([N+](=O)[O-])c2)n1 | inconclusive [activator, single point] | 
Cc1nc(N2CCN(c3ccccc3O)CC2)c2c(-c3ccccc3)csc2n1 | inconclusive [activator, single point] | 
COC(=O)CCS(=O)(=O)c1nc(-c2ccccc2)cc(C(F)(F)F)n1 | inconclusive [activator, single point] | 
COc1ccc(/C=C/C(=O)NNc2c(F)c(F)cc(F)c2F)cc1OC | inactive | 
CCOC(=O)C1(C)CCCN(C(=O)c2ccccc2C(F)(F)F)C1 (stereo not given) | inactive | 
CS/C(=C\[N+](=O)[O-])Nc1ccc(OC(F)(F)F)cc1 | inconclusive [activator, full curve, poor fit] | 
Cc1ccc2oc(C(=O)Nc3nnc(C)s3)c(C)c2c1 | inactive | 
COc1cc(C(=O)NC(C)C2CC3CCC2C3)ccc1OC(F)F (stereo not given) | inconclusive [activator, single point] | 
Cc1nn(C)c(C)c1CN(C)S(=O)(=O)c1ccc2ccccc2c1 | inconclusive [activator, single point] | 
Cc1ccc(NC(=O)N2CC3CCCN3c3ccccc32)cc1C (stereo not given) | active: 20 µM | 
C#CCOC(=O)CCCN1C(=O)c2cccc3cccc(c23)C1=O | inconclusive [activator, partial curve] | 
O=C(O)c1ccccc1C1c2ccccc2Oc2ccccc21 | inconclusive [activator, single point] | 
CN(C)S(=O)(=O)c1cccc(C(=O)NC(=S)N(CCC#N)Cc2cccnc2)c1 |  | inactive: 4.53% [at 9.22 µM]
CCCCn1nc(C(=O)Nc2cccc(C(=O)NC3CC3)c2)c2ccccc2c1=O | inconclusive [activator, single point] | 
O=C(NC1CC1)c1cc2cc(Br)ccc2s1 | inconclusive [activator, full curve] | 
Cc1oc(-c2ccc(C(=O)NCCC(C)C)cc2)nc1CS(=O)(=O)c1ccccc1 | inactive | 
COc1cc(C(=O)Nc2ccc(C(=O)c3cccs3)cc2)cc(OC)c1OC | inconclusive [activator, partial curve] | 
O=C(Nc1ccc2c(c1)OCCO2)C(CCc1ccccc1)N1CCN(c2ccc(F)cc2)CC1 (stereo not given) | inconclusive [activator, partial curve] | 
COc1ccccc1C1(CCNS(=O)(=O)c2ccc(C)cc2)CCOC(C(C)C)C1 (stereo not given) | inconclusive [activator, single point] | 
Cc1ccc(C)c(NS(=O)(=O)c2cc(C(=O)N3CCc4ccccc4C3)ccc2Cl)c1 | inactive | 
